These are yes or no findings as the source states them, for the method shown. In cells and extracts the contact can be indirect. Some binding calls cover weakened binding; strength is not graded here. For some assays here: Tags and fused reporters may be left off the sequences shown. One block for each molecule: values may come before it.
Tests used:
[1] = molecular target: T1, FLAG-tagged human CNNM4 (pCMV-4A) (human) (UniProt Q6P4Q7); test: co-IP; FLAG-CNNM isoforms individually expressed in HEK-293T cells and immunoprecipitated, blots for native CNNM isoforms (S16 Fig A-D)
T1 sequence: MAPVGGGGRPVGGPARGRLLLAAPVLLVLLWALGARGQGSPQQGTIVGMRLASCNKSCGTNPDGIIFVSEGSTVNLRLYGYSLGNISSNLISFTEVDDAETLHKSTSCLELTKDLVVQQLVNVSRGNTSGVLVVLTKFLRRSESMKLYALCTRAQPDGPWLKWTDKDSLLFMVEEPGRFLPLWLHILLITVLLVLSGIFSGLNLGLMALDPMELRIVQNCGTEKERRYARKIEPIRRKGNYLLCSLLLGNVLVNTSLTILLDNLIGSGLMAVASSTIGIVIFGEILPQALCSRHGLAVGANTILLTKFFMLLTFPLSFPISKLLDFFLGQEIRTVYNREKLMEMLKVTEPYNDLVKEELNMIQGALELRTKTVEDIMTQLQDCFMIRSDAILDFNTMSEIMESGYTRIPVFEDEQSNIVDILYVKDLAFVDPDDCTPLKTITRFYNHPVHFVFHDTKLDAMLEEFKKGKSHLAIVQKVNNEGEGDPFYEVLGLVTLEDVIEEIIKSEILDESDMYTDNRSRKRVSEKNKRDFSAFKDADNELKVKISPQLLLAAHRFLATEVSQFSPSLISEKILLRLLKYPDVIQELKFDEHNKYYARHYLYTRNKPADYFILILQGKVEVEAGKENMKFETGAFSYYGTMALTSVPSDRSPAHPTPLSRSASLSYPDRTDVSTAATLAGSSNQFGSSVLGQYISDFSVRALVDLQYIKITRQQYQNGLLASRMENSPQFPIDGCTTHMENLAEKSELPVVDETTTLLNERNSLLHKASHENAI

The chains behind the UniProt entries cited, without tags or fusion partners.
UniProt Q923J1: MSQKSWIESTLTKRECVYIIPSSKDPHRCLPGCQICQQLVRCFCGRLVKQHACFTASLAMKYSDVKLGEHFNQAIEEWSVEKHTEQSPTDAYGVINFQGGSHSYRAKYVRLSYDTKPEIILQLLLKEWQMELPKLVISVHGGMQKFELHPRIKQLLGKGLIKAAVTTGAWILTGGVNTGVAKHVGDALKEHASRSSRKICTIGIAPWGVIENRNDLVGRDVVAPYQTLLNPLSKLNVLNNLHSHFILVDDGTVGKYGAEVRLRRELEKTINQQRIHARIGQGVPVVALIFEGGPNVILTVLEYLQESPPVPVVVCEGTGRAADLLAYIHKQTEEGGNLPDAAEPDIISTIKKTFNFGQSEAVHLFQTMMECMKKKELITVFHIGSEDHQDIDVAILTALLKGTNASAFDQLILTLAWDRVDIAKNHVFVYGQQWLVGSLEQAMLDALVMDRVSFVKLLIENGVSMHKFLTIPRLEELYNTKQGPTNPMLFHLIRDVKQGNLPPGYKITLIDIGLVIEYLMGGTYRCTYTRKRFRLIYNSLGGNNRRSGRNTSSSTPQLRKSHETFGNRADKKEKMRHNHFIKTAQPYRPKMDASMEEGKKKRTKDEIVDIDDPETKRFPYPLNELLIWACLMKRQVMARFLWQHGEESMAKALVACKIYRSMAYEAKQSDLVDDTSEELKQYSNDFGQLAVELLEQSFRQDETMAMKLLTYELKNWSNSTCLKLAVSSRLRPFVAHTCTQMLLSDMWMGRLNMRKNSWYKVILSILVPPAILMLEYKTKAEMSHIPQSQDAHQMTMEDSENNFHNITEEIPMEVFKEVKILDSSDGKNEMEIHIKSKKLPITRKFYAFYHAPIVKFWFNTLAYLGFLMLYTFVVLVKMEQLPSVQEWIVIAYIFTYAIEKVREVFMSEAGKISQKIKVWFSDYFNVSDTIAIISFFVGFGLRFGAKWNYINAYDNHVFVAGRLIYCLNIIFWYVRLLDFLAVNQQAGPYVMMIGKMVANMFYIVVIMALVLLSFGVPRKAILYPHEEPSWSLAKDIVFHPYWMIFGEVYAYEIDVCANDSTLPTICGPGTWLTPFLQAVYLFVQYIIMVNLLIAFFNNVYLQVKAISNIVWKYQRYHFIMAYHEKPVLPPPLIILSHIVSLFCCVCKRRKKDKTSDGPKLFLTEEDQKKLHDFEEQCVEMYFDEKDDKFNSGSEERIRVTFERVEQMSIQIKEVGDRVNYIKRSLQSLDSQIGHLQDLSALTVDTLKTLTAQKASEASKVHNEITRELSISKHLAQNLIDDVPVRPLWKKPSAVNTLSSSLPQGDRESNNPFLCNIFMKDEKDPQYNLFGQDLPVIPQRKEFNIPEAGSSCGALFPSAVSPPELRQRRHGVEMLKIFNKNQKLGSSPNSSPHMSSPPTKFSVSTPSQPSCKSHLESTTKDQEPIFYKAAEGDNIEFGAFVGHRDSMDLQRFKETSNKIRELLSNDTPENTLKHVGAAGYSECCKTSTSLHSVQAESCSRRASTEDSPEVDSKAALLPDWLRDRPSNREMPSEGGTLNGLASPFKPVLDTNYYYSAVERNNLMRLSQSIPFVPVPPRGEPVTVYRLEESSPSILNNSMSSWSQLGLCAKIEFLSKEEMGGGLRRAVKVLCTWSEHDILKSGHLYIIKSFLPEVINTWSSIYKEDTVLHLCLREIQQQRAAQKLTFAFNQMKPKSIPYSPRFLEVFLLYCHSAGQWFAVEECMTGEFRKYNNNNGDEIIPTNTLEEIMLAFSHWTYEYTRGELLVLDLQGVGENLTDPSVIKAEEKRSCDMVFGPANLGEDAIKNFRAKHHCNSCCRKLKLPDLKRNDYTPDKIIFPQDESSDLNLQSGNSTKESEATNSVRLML
UniProt Q9BX84: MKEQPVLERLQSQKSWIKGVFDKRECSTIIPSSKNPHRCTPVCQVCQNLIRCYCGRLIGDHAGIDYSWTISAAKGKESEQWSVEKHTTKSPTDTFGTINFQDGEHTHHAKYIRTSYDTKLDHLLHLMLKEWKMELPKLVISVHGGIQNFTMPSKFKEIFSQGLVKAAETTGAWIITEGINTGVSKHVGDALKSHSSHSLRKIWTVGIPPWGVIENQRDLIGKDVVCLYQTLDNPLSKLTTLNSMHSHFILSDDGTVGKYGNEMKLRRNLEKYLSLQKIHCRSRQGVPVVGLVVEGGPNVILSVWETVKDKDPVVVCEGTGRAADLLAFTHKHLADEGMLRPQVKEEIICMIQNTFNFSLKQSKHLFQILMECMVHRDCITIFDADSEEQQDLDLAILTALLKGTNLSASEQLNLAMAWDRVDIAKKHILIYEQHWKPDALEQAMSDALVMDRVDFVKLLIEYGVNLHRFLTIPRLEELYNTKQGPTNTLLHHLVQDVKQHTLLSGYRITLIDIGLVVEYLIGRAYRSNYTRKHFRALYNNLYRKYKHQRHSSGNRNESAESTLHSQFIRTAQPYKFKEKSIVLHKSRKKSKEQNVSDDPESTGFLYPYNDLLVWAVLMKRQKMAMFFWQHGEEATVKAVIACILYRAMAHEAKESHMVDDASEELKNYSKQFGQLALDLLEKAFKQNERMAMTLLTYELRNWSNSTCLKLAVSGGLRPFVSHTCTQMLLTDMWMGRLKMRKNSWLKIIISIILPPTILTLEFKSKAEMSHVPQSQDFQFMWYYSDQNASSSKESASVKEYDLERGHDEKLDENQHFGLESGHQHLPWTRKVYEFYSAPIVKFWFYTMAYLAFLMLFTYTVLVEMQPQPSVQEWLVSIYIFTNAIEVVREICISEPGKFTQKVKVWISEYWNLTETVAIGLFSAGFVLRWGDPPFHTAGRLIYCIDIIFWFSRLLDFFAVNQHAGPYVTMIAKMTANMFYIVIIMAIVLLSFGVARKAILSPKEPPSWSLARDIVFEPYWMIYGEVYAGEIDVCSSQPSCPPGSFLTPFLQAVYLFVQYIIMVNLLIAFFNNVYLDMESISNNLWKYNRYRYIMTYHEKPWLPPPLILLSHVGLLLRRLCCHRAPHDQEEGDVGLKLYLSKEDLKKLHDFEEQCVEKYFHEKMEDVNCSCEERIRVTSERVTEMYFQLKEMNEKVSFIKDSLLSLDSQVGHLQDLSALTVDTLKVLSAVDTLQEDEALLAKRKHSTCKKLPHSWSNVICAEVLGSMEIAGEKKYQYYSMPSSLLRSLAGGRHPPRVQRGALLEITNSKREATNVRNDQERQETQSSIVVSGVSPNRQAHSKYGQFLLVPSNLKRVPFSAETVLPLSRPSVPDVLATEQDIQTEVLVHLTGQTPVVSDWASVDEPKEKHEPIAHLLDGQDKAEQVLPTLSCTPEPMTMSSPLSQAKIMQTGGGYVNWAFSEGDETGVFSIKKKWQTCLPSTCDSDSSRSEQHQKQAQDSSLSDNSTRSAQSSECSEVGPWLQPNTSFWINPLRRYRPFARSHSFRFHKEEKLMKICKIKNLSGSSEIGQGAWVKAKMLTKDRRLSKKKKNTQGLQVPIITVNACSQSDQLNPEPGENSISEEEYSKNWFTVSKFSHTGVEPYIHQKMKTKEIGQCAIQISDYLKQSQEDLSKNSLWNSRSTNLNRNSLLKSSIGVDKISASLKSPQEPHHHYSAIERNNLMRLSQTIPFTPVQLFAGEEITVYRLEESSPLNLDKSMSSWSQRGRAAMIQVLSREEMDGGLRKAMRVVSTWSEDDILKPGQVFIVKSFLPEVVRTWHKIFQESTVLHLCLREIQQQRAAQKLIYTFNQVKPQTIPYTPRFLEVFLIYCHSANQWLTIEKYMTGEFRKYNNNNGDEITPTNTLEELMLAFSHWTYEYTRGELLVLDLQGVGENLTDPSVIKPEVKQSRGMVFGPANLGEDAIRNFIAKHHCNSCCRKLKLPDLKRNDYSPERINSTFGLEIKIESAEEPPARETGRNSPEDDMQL
UniProt Q9NRU3: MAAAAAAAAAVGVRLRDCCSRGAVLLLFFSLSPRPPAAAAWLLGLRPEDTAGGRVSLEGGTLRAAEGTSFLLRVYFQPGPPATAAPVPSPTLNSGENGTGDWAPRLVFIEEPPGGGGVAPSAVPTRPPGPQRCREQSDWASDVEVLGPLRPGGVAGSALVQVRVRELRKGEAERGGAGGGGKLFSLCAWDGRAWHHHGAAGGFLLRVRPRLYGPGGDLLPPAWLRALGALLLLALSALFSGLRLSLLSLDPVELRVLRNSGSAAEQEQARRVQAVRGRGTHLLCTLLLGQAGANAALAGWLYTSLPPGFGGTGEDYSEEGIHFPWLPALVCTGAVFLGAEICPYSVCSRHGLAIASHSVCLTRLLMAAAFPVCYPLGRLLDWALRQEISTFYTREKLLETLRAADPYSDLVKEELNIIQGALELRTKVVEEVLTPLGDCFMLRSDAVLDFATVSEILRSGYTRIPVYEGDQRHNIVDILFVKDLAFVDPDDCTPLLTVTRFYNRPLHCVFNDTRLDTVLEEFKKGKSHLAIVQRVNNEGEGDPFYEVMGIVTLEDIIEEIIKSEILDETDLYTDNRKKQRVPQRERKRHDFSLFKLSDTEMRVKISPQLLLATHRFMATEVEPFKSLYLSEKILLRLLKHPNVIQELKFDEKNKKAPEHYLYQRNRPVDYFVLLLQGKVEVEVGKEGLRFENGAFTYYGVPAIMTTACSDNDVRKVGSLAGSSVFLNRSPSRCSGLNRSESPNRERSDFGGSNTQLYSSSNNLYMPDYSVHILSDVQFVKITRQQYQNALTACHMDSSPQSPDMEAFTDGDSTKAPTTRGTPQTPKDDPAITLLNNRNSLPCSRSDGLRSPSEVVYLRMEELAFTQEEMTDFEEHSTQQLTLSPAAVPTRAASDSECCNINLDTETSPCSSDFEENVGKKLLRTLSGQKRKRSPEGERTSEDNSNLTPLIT

[2] = molecular target: HA-tagged TRPM7 (pcDNA5-FRT-TO-HA-TRPM7) (mouse) (UniProt Q923J1); test: co-IP; HA-tagged channel coexpressed with FLAG-tagged CNNM1-4 in HEK-293T cells, immunoprecipitated overnight with HA-agarose; lysis buffer 50 mM TRIS (pH 7.4), 150 mM NaCl, 1% Igepal 630, 4°C; growth medium with or without 20 mM MgCl2 (Fig 1A)
[3] = molecular target: HA-TRPM6 (pcDNA5-FRT-TO-HA-TRPM6) (UniProt Q9BX84); test: as above
[4] = molecular target: HA-tagged mouse TRPM7 expressed from the recombinant adenovirus pAd/CMV/V5-SR-TRPM7 (Ad-TRPM7-HA) (mouse) (UniProt Q923J1); test: co-IP; HA-TRPM7 expressed in RPTEC/TERT cells by transduction with Ad-TRPM7-HA, immunoprecipitated with HA-agarose, blot for native CNNM3

B1: FLAG-tagged human CNNM4 (pCMV-4A) (protein, UniProt Q6P4Q7 1-775)
chain: T1 sequence
binding [2]: binds
binding [3]: no binding

B2: FLAG-tagged human CNNM3 (pCMV-4A) (protein, UniProt Q8NE01 1-707)
chain: MAAAVAAAGRLGWLFAALCLGNAAGEAAPGPRVLGFCLEEDGAAGAGWVRGGAARDTPDATFLLRLFGPGFANSSWSWVAPEGAGCREEAASPAGEWRALLRLRLRAEAVRPHSALLAVRVEPGGGAAEEAAPPWALGLGAAGLLALAALARGLQLSALALAPAEVQVLRESGSEAERAAARRLEPARRWAGCALGALLLLASLAQAALAVLLYRAAGQRAVPAVLGSAGLVFLVGEVVPAAVSGRWTLALAPRALGLSRLAVLLTLPVALPVGQLLELAARPGRLRERVLELARGGGDPYSDLSKGVLRCRTVEDVLTPLEDCFMLDASTVLDFGVLASIMQSGHTRIPVYEEERSNIVDMLYLKDLAFVDPEDCTPLSTITRFYNHPLHFVFNDTKLDAVLEEFKRGKSHLAIVQKVNNEGEGDPFYEVLGLVTLEDVIEEIIRSEILDESEDYRDTVVKRKPASLMAPLKRKEEFSLFKVSDDEYKVTISPQLLLATQRFLSREVDVFSPLRISEKVLLHLLKHPSVNQEVRFDESNRLATHHYLYQRSQPVDYFILILQGRVEVEIGKEGLKFENGAFTYYGVSALTVPSSVHQSPVSSLQPIRHDLQPDPGDGTHSSAYCPDYTVRALSDLQLIKVTRLQYLNALLATRAQNLPQSPENTDLQVIPGSQTRLLGEKTTTAAGSSHSRPGVPVEGSPGRNPGV
binding [2]: binds
binding [3]: binds

Second part, the molecule after the results:

binding [1]: binds
Molecule: native CNNM1 (endogenous, HEK-293T) (from UniProt Q9NRU3 1-951)

binding [4]: binds
B3: native CNNM3 of RPTEC/TERT1 cells (protein, UniProt Q8NE01 1-707)
chain: B2 chain

binding [2]: binds
binding [3]: no binding
B4: FLAG-tagged mouse CNNM2 (pCMV-4A) (protein, UniProt Q3TWN3 1-875)
chain: MIGCGACEPEVKMAGGQAAAALPTWKMAARRSLSARGRGVLQAAAGRLLPLLLLSCCWGAGGCTAAGENEETVIIGLRLEDTNDVSFMEGGALRVSERTRVKLRVYGQNINNETWSRIAFTEHERRRHTPSERGLGGPAPPEPDSGPQRCGIRTSDIIILPHIILNRRTSGIIEIEIKPLRKMEKSKSYYLCTSLSTPALGAGGSGSASGTVGGKGGAGVAGLPPPPWAETTWIYHDGEDTKMIVGEEKKFLLPFWLQVIFISLLLCLSGMFSGLNLGLMALDPMELRIVQNCGTEKEKNYAKRIEPVRRQGNYLLCSLLLGNVLVNTTLTILLDDIAGSGLVAVVVSTIGIVIFGEIVPQAICSRHGLAVGANTIFLTKFFMMMTFPASYPVSKLLDCVLGQEIGTVYNREKLLEMLRVTDPYNDLVKEELNIIQGALELRTKTVEDVMTPLRDCFMITGEAILDFNTMSEIMESGYTRIPVFEGERSNIVDLLFVKDLAFVDPDDCTPLKTITKFYNHPLHFVFNDTKLDAMLEEFKKGKSHLAIVQRVNNEGEGDPFYEVLGIVTLEDVIEEIIKSEILDETDLYTDNRTKKKVAHRERKQDFSAFKQTDSEMKVKISPQLLLAMHRFLATEVEAFSPSQMSEKILLRLLKHPNVIQELKYDEKNKKAPECYLYQRNKPVDYFVLILQGKVEVEAGKEGMKFEASAFSYYGVMALTASPVPLSLSRTFVVSRTEVLAAGSPGENKSPPRPCGLNHSDSLSRSDRIDAMTPTLGSSNNQLSSSFLQVYIPDYSVRALSDLQFVKISRQQYQNALMASRMDKTPQSSDSENTKIELTLTELHDGLPDETANLLNEQNCVSHNKANHSLHSEGAI

From PMC8726484
